Experimental data taken from the BET-seq Pho4 binding data (Le et al. 2018).
This is one part of the list. Values were computed here from the reads of four pooled replicates and scatter widely.

target: T1, Pho4 (S. cerevisiae) (UniProt P07270); assay: relative binding free energy (BET-seq); higher = weaker binding; conditions: reference: library average
T1 sequence: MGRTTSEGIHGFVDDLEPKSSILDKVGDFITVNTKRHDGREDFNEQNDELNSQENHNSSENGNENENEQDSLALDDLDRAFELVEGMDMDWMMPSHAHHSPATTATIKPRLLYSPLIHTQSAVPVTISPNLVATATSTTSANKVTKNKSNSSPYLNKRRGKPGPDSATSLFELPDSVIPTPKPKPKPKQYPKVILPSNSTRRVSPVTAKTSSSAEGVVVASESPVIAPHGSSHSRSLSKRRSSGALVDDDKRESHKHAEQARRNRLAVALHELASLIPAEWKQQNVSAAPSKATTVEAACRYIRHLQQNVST

Sequence | relative binding free energy [kcal/mol]
TTCAGCACGTGAGATT | 0.38
AGGTTCACGTGATTAG | 0.35
TCGGGCACGTGTGATA | -0.06
GGCCACACGTGTGGGG | 0.1
TCGATCACGTGGGGGC | 0.05
GGATGCACGTGGAATG | 0.14
GGTGCCACGTGGGCTT | -0.06
GCAATCACGTGGTGGT | 0.08
TTTGTCACGTGGGGTA | -0.1
TGGTTCACGTGTACTT | 0.27
GGGGTCACGTGATAGA | 0.39
AGTTCCACGTGGTTAT | -0.03
TGTATCACGTGAGGCA | 0.24
TCGATCACGTGATTGT | 0.45
CTCTGCACGTGGTTGT | -0.15
TGGAACACGTGAGTGA | 0.35
TTAGGCACGTGGGCAT | -0.28
CTCGGCACGTGGGGTC | -0.17
TAGGTCACGTGGATTT | 0.17
TAGGGCACGTGATGAG | -0.1
TCATACACGTGTTGGG | 0.1
TGAATCACGTGATGCG | 0.23
ATTAACACGTGTAGCG | 0.02
CGGGGCACGTGATTAT | 0.07
TTGTTCACGTGTCGGC | 0.36
TGAATCACGTGCGATG | 0.37

Sequence | relative binding free energy [kcal/mol]
TTGTGCACGTGGAAGC | 0.12
AGGCACACGTGGGGAT | -0.07
GGCGTCACGTGGCCGG | -0.08
GGTAGCACGTGTTGTT | 0
TTCGGCACGTGTTGAG | 0
ATGAGCACGTGGAATT | 0.18
ATTTGCACGTGAGAAT | 0.24
CGAATCACGTGGTGTT | 0.06
TGGAGCACGTGTGTAT | 0.1
CGGCGCACGTGTGAAT | 0.14
TCATTCACGTGTGAAG | 0.3
AGATTCACGTGGATTT | 0.35
GGTTACACGTGGAGAT | 0.28
ATGGACACGTGTGTGC | 0.02
AGCGGCACGTGTGTGG | -0.09
TTGGGCACGTGCGAAG | -0.11
CTGGGCACGTGTCCGG | -0.12
GGGTTCACGTGATATG | 0.3
TGCTTCACGTGTGGAG | 0.34
TCTGTCACGTGATTCG | 0.41
CTCGACACGTGGGGTT | -0.13
GTTGCCACGTGGTTAA | -0.13
TGGCGCACGTGGTCGT | -0.2
TTTTCCACGTGGAGTA | 0.07
TTTTTCACGTGATATG | 0.37
ATTAACACGTGAAAGG | 0.28

Sequence | relative binding free energy [kcal/mol]
TTCTACACGTGGGTTG | -0.06
ACGGTCACGTGGCGGT | 0.02
GTATCCACGTGGTTTT | 0.1
TGATTCACGTGTTGCA | 0.12
TGCGGCACGTGGCTTT | -0.21
ATTATCACGTGTATCT | 0.04
GGGTGCACGTGCTGGT | -0.04
TTTAGCACGTGTTGGT | -0.12
GATTGCACGTGTTTCT | 0.05
GTAGTCACGTGGGTCA | -0.13
GCTGTCACGTGAGTTG | 0.3
AATGTCACGTGATTAT | 0.3
TGTCACACGTGGTGTG | -0.01
TTATACACGTGTCGGT | 0.01
TACCTCACGTGTTTTT | 0.32
GGTGGCACGTGTATTC | 0.11
GATGGCACGTGGGAGA | -0.25
AAGTACACGTGTTGTT | 0.08
TGCGGCACGTGTAGTT | 0.02
CGGGGCACGTGGAGAA | -0.05
TTAGGCACGTGCTTAT | -0.13
ATAAGCACGTGGTCTG | -0.27
GATGGCACGTGCAGGC | 0.02
TAGTTCACGTGATGCG | 0.31
CGGGGCACGTGGGGAG | -0.15
GAGTGCACGTGTGAGC | 0.17

Sequence | relative binding free energy [kcal/mol]
AGCGTCACGTGATGTT | 0.21
GGGTACACGTGTGGGC | 0.24
AGTATCACGTGGCATG | -0.09
GAGGTCACGTGCTATT | 0.19
GTTGCCACGTGTTGAG | -0.06
ACTTTCACGTGTGTGA | 0.27
GAGAACACGTGGGAGG | -0.05
TAATACACGTGGTATA | -0.02
TTATTCACGTGGGACT | 0.16
ATTGGCACGTGATTAG | 0.04
TCGTGCACGTGTGCAG | -0.03
TGAGACACGTGGGAGG | -0.09
GGGAGCACGTGTGATG | -0.1
ATAAACACGTGTGGGG | 0.15
GGTGTCACGTGCTGAT | -0.01
GGTATCACGTGGAGCT | 0.14
GTATACACGTGGTTTT | 0.23
AGTTGCACGTGCAGTT | 0.07
TGGTGCACGTGCACGG | -0.12
TGTGGCACGTGGGCAC | -0.16
GGGTACACGTGTATTT | 0.23
CATAACACGTGGGTGT | -0.15
GGGTACACGTGTTGAA | 0.06
ATCCTCACGTGTAGGT | 0.27
TTCGGCACGTGATGGG | -0.01
ATCTACACGTGGGGCT | 0.26

Sequence | relative binding free energy [kcal/mol]
CAAGGCACGTGGATGG | -0.03
GGTGTCACGTGGTATG | 0.12
GACTTCACGTGTAGTT | 0.33
GTAGACACGTGCTTTT | 0.11
ATGAACACGTGTTGGT | 0.16
TGGCGCACGTGGCTAG | -0.16
TAGGTCACGTGGTCGT | 0.04
TATTTCACGTGGAAGA | 0.28
TTAATCACGTGGTTAA | 0.03
ATTATCACGTGGGCGA | 0
GATTTCACGTGTCGGG | 0.44
TTTTACACGTGAATTT | 0.17
AGTATCACGTGTTTGG | 0.14
TGAAGCACGTGTGAAG | 0.04
TCTTTCACGTGTGTTC | 0.14
TTTTCCACGTGTATTG | 0
TGTTACACGTGCGGGG | 0.01
GGTGCCACGTGGGTAG | -0.13
AGTAACACGTGGTGCT | -0.18
TGTTGCACGTGATCAG | 0.07
TGTAACACGTGTGGTG | -0.01
TTGGCCACGTGGAGGT | -0.09
CTTTACACGTGTATTA | 0.16
TAGTGCACGTGAGGCA | 0.13
GTTGTCACGTGTCAAG | 0.15
GTTATCACGTGGACAT | 0.31

Sequence | relative binding free energy [kcal/mol]
ATGTACACGTGGGTGA | -0.18
ATAGGCACGTGGGCTG | -0.34
TACTTCACGTGGTGGT | 0.14
AGATGCACGTGGGAAT | 0.04
TGAGTCACGTGAAATT | 0.32
ACAGTCACGTGTTATT | 0.08
GTGGTCACGTGCGTAG | 0.1
ACGGTCACGTGCTGGT | -0.12
GGTAACACGTGGAATT | 0.11
GTGTCCACGTGTGGAG | 0
ACGGGCACGTGGTTGT | -0.1
ATAATCACGTGTGATT | 0.27
CTAGGCACGTGCGTGG | -0.19
AACGGCACGTGTTGTG | -0.02
GTATCCACGTGTATGT | 0.08
CGAGGCACGTGGGGGT | -0.21
TGCGCCACGTGGTGGT | -0.12
ACGGGCACGTGGGGTC | -0.2
GAGTACACGTGATTTG | 0.26
GGTGTCACGTGGTACT | 0
GGCCGCACGTGTAGGG | 0.04
GATGACACGTGATAGT | 0.23
AGTGGCACGTGGATAC | -0.01
TGTTCCACGTGTCTTG | 0.03
CCAGGCACGTGGGGCG | -0.18
TGGAACACGTGGCGGG | 0.05

Sequence | relative binding free energy [kcal/mol]
CCTTGCACGTGTGTTA | 0.15
GTATTCACGTGTCGAT | 0.22
TGTTTCACGTGCGAGA | 0.14
GCCGGCACGTGAAGGG | 0.12
GCGCACACGTGGGAGG | 0.04
AGGCTCACGTGGGTTA | 0.13
TTGCACACGTGGAGGT | -0.05
GTAAGCACGTGTTAGA | -0.07
GTCGTCACGTGCTGAG | 0.11
TGATACACGTGGGTGC | -0.17
AATTGCACGTGTGCGG | 0.05
TGTAACACGTGTGACG | 0.11
CGTGACACGTGTGGTT | -0.03
GTGGTCACGTGTGAGG | 0.17
TGATGCACGTGGTTTA | 0.05
TTTTACACGTGGTGGA | 0.01
TTTAGCACGTGAGTCG | 0.03
GTTGTCACGTGGAGTA | 0.18
GCAGTCACGTGTTGGG | 0.09
TTGGACACGTGTTTTG | 0
TTTGCCACGTGAGTTG | 0.12
ATGCTCACGTGGTTGA | 0.1
CTGTACACGTGATGAT | 0.22
TGTCTCACGTGAAGTT | 0.3
AGAGGCACGTGTTTCG | -0.11
GGGATCACGTGGGTAT | 0.11

Sequence | relative binding free energy [kcal/mol]
AAATGCACGTGAGTTA | 0.25
GGGATCACGTGTGAGT | 0.29
CATTACACGTGATGTT | 0.22
GCTAACACGTGTGGTT | 0.23
CTGGTCACGTGGGGGG | -0.05
TATTTCACGTGCAGGT | 0.16
TGTCTCACGTGGGGGA | 0.1
TTTGGCACGTGCTAGA | -0.25
GGGTTCACGTGCATTG | 0.32
ATTTCCACGTGTGGGT | 0.07
CAGCGCACGTGAGGGG | 0.12
ATTACCACGTGGAGGG | -0.06
TTCTACACGTGCTGGT | 0.12
TAATTCACGTGTTAAG | 0.21
CGTAACACGTGTGTGG | -0.1
AATTTCACGTGTTAGA | 0.23
CGATGCACGTGGTTGG | 0.11
GTAAGCACGTGTAGTT | 0.05
TATCTCACGTGAGCGG | 0.48
GTTGTCACGTGGTACA | 0.12
TAATACACGTGAGTTT | 0.25
GTGACCACGTGGGGTC | -0.09
TGGATCACGTGGTTGT | 0.09
AGGGGCACGTGTATGG | -0.02
TGGAGCACGTGGAAAA | 0.13
TAAAGCACGTGTTCGG | -0.07

Sequence | relative binding free energy [kcal/mol]
TGCTACACGTGTAAGT | 0.21
GGTGGCACGTGAAGCG | 0.02
TGACTCACGTGGGTGT | -0.05
ATGGGCACGTGGCGGC | -0.21
ATAGTCACGTGAATTG | 0.22
TTGTTCACGTGATGGA | 0.36
CTTTTCACGTGCTGGG | 0.22
CTCAGCACGTGGGTGT | -0.21
AGGCTCACGTGGGATG | 0.1
GTTGACACGTGTCGGT | 0.02
GATAGCACGTGGGAGA | -0.16
TTGTTCACGTGAATTA | 0.33
TTGAACACGTGCGGGT | 0
GAGGGCACGTGCGTCG | -0.03
TTTTCCACGTGGGTGG | -0.03
GGTTCCACGTGAGTGG | 0.23
GACGTCACGTGAGGTT | 0.31
TGAGGCACGTGGGGCG | -0.19
AAAAGCACGTGGTTGG | -0.03
GTTTCCACGTGTCGGG | 0.02
TTCAGCACGTGTTACT | 0.03
TAGTTCACGTGGTGCA | 0.06
